Results published in the antibiotic and cytotoxicity screens of Wong et al. (2023).
The other results are listed elsewhere or left out.

Legend:
HSkMC = human skeletal muscle cells; assay: cytotoxicity call (relative viability < 0.9); conditions: 10 µM
HepG2 = assay: cytotoxicity call (relative viability < 0.9); conditions: 10 µM
S. aureus RN4220 = assay: growth inhibition call (relative growth <= 0.2); conditions: 50 µM

Row | Compound | cytotoxicity call (HSkMC) | cytotoxicity call (HepG2) | growth inhibition call (S. aureus RN4220)
1 | C[C@@H]1CN([C@H](C)CO)C(=O)c2cc(NC(=O)Nc3ccc(C(F)(F)F)cc3)ccc2O[C@@H]1CN(C)Cc1ccncc1 | inactive | inactive | inactive
2 | NC1CCC(O)CC1 (centres undefined) | inactive | inactive | inactive
3 | CCOC(=O)CNc1nnc(N)[nH]1 | inactive | inactive | inactive
4 | COc1ccc(N2C[C@@H](O)Cn3c2nc2c3c(=O)[nH]c(=O)n2C)cc1 | inactive | inactive | inactive
5 | C[C@@H]1CCCCO[C@@H](CN(C)C(=O)C2CCCCC2)[C@@H](C)CN([C@@H](C)CO)C(=O)c2cc(NS(=O)(=O)c3ccc(F)cc3)ccc2O1 | inactive | inactive | inactive
6 | C[C@H](O)C#Cc1ccc2c(c1)O[C@H](CN(C)C(=O)Nc1ccccc1)[C@@H](C)CN([C@H](C)CO)S2(=O)=O | inactive | inactive | inactive
7 | C[C@@H]1CN([C@H](C)CO)C(=O)c2cc(NC(=O)Nc3ccc4c(c3)OCO4)ccc2O[C@@H](C)CCCCO[C@H]1CN(C)C(=O)C1CCCCC1 | inactive | inactive | inactive
8 | C[C@@H]1CN([C@H](C)CO)C(=O)c2cccc(NC(=O)c3ccc(-c4nccs4)cc3)c2O[C@H]1CN(C)C(=O)Nc1ccccc1 | inactive | inactive | inactive
9 | COc1ccc(NC(=O)Nc2ccc3c(c2)C(=O)N([C@H](C)CO)C[C@H](C)[C@H](CN(C)CC2CC2)OCCCC[C@@H](C)O3)cc1 | inactive | inactive | inactive
10 | Cc1noc(C)c1S(=O)(=O)N(C)C[C@H]1Oc2ccc(NC(=O)Cn3cnnn3)cc2CC(=O)N([C@@H](C)CO)C[C@H]1C | inactive | inactive | inactive
11 | C[C@H](CO)N1C[C@H](C)[C@H](CN(C)S(=O)(=O)c2cn(C)cn2)OCCCC[C@H](C)Oc2ccc(NC(=O)CCCN(C)C)cc2C1=O | inactive | inactive | inactive
12 | C[C@@H]1CCCCO[C@@H](CN(C)C(=O)c2ccccc2)[C@@H](C)CN([C@H](C)CO)C(=O)c2cc(NC(=O)c3ccccc3)ccc2O1 | inactive | inactive | inactive
13 | C[C@@H]1CN([C@H](C)CO)S(=O)(=O)c2ccc(C#CCC3CCCC3)cc2O[C@@H]1CN(C)C(=O)CN(C)C | inactive | inactive | inactive
14 | CCNC(=O)C[C@H]1CC[C@H]2[C@@H](COC[C@@H](O)CN2S(=O)(=O)c2ccc(Oc3ccccc3)cc2)O1 | inactive | inactive | inactive
15 | C[C@H]1CCn2cc(nn2)COC[C@@H](Cc2ccccc2)NC(=O)[C@@H](C)CCn2cc(nn2)COC[C@@H](Cc2ccccc2)NC1=O | inactive | inactive | inactive
16 | CC(C)c1ccc(/C=C/C(=O)O)cc1 | inactive | inactive | inactive
17 | Cl.NCCCC(N)C(=O)O (centres undefined) | inactive | active | inactive
18 | C=CCOC(=O)[C@H]1[C@@H]2C(=O)O[C@@H](c3ccccc3)[C@@H](c3ccccc3)N2[C@@H](c2ccc(OCCOC(=O)[C@@H]3C[C@@H]4C(=O)N[C@@H](CC(C)C)C(=O)N4[C@@H]3c3cccc(OCCO)c3)cc2)[C@]12C(=O)Nc1ccc(I)cc12 | inactive | inactive | inactive
19 | COc1ccccc1S(=O)(=O)N[C@@H]1CC[C@H](CCNC(=O)C2CCOCC2)O[C@@H]1CO | inactive | inactive | inactive
20 | Cc1noc(C)c1NC(=O)N(C)C[C@H]1Oc2c(NC(=O)C3CCOCC3)cccc2C(=O)N([C@H](C)CO)C[C@H]1C | inactive | inactive | inactive
21 | CCCCCCCCCCCCCCCC(=O)OCC=C(C)C=CC=C(C)C=CC1=C(C)CCCC1(C)C | inactive | inactive | inactive
22 | C[C@H](CO)N1C[C@H](C)[C@@H](CN(C)C(=O)Nc2ccccc2)Oc2ccc(NS(=O)(=O)c3cn(C)cn3)cc2C1=O | inactive | inactive | inactive
23 | Cn1cnc(S(=O)(=O)N[C@H]2C=C[C@H](CC(=O)Nc3ccccc3)O[C@H]2CO)c1 | inactive | inactive | inactive
24 | OC[C@H]1O[C@@](CO)(O[C@H]2O[C@H](CO)[C@@H](O)[C@H](O)[C@H]2O)[C@@H](O)[C@@H]1O | inactive | inactive | inactive
25 | C[C@@H]1CCCCO[C@H](CN(C)Cc2ccc(C(F)(F)F)cc2)[C@H](C)CN([C@@H](C)CO)C(=O)c2cc(NC(=O)Nc3ccccc3)ccc2O1 | inactive | active | inactive
26 | O=C(CCCCC(=O)N/N=C/[C@@H](O)[C@H](O)[C@H](O)CO)NO | inactive | inactive | inactive
27 | C[C@@H]1CN([C@H](C)CO)C(=O)Cc2cc(NC(=O)Nc3ccccc3)ccc2O[C@H]1CN(C)Cc1ccc(Oc2ccccc2)cc1 | inactive | active | inactive
28 | O=C(CN1CCOCC1)N[C@H]1CC[C@@H](CCNS(=O)(=O)c2ccccc2F)O[C@H]1CO | inactive | inactive | inactive
